The values that follow come from paper PMC7819943, “Rice protein-binding microarrays: a tool to detect cis-acting elements near promoter regions in rice”.

The list shows a part of the results.

In this test the target is T1, OsWOX13 (Oryza sativa, UniProt Q5QMM3 1-267).
T1 sequence: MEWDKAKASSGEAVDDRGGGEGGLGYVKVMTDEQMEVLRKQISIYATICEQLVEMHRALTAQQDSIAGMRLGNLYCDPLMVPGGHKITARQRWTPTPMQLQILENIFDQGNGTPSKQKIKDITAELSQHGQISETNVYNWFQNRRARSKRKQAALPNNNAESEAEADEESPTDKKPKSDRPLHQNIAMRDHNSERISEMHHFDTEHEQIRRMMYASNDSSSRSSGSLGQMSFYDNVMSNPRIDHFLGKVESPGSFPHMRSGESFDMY
The experiment in a line: protein-binding microarray (RPBM); PBS, 2% BSA, 51.3 ng/ul salmon testes DNA, 50 uM zinc acetate, 200 nM TF, 25 C, 1 h; high values mean tight binding. To be noted: protein: recombinant; tags: N-terminal polyhistidine and DsRed monomer fusion (pET32a); label: CyDye5-dUTP incorporated in the synthesized complementary strand; 3' TTTTT single-stranded linker to array surface; dsDNA, one strand shown. Put shortly:
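Binding signal here means per-feature fluorescence intensity in arbitrary units. The values were read on an Axon 4000B scanner after a custom Agilent array, double-stranded by primer extension with Cy5-dUTP, was incubated with 200 nM protein at 25 °C for 1 h in PBS with 2% BSA, salmon testes DNA and 50 µM zinc acetate, then washed. The proteins were transcription factors with an N-terminal polyhistidine tag and DsRed, expressed in E. coli BL21-CodonPlus and purified on Ni–NTA.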
Consider “CAAGTATCAATCACGAGCTGCACAACTTAAGTAGGAGAAACGGAGTCACCTAGTGCAG”, for which the binding signal is 9000 fluorescence intensity (a.u.). In the case of “GGAAATACCTCAGATTGATAGTAGATTCTACAAGATTACACGGAGTCACCTAGTGCAG”, the binding signal was 9690 fluorescence intensity (a.u.). As for “CTGATTTATGATAGGACATGACACACTACCTCTACATGTTCGGAGTCACCTAGTGCAG”, the binding signal was 27600 fluorescence intensity (a.u.).

Turning to “GTTAATAAATTTAGGTATATATATATATTTATTAACATCTCGGAGTCACCTAGTGCAG”, the binding signal was 4570 fluorescence intensity (a.u.).

For the sequence “AGAGATGATATCAATTGTTAATACTTTCGGATGTCGGCAACGGAGTCACCTAGTGCAG”, the binding signal is 3300 fluorescence intensity (a.u.). With “TGCATTACATAATAATTATCTTATAGCAACATTATACTGGCGGAGTCACCTAGTGCAG” the figure was 6490 fluorescence intensity (a.u.); with “CTTAATTAGCCAGATCTAATCCACTGTTCATCTGATGTAGCGGAGTCACCTAGTGCAG”, 23800 fluorescence intensity (a.u.).

For “ACCAAATTAATTTTATTAAATTAATTATTAAATATATTTTCGGAGTCACCTAGTGCAG”, the binding signal was 36500 fluorescence intensity (a.u.).

Turning to “TAATAATTTAGGTTATAATAACCTTAAGCCGAATCCTTAACGGAGTCACCTAGTGCAG”, the binding signal is 8830 fluorescence intensity (a.u.). As to “ACTAATGATCAATCAGTTATCACACAATGTCACCATGTGACGGAGTCACCTAGTGCAG”, the binding signal was 33000 fluorescence intensity (a.u.). For “CTATAAATTAATTTTATTTTCTAATAAATCGTTTTAGCTTCGGAGTCACCTAGTGCAG” the value was 34700 fluorescence intensity (a.u.); for “GCAATGATCATGTATAATTTTAGGGTTAGTTCACTGGTAGCGGAGTCACCTAGTGCAG”, 7150 fluorescence intensity (a.u.).

Consider “CTTTAACAGCTAGCGATAATCGTTTTCGCTTGCGGTAGTGCGGAGTCACCTAGTGCAG”, for which the binding signal is 4740 fluorescence intensity (a.u.).

“CAGCCCTTAATTGAATTTGGCCCAGCTAGTTCCCGGGCCCCGGAGTCACCTAGTGCAG”: the binding signal is 30600 fluorescence intensity (a.u.).

Regarding “TTAAAATATTGCTCATTAGATTGGTCGAAACCGGTTATCGCGGAGTCACCTAGTGCAG”, the binding signal is 3970 fluorescence intensity (a.u.).

Turning to “GTGATTACATTGATAATAATTGATTGAATCAGTTTGTTCTCGGAGTCACCTAGTGCAG”, the binding signal is 62600 fluorescence intensity (a.u.).

On to “CTCGCTTATCTATCAGTCTATCACTTTCCATGGAACTTCCCGGAGTCACCTAGTGCAG”, for which the binding signal was 4780 fluorescence intensity (a.u.). Take “GTAGTTAATTGTAAACACTGTACTAAGCAGTATACATTTTCGGAGTCACCTAGTGCAG”: the binding signal was 20300 fluorescence intensity (a.u.). With “TATATATATATATATATATATATATATATATTTACTATATCGGAGTCACCTAGTGCAG” the figure was 5070 fluorescence intensity (a.u.); with “TCTGATAGGTATTTATAACTCTTGATTTGGCGGACACTTGCGGAGTCACCTAGTGCAG”, 42100 fluorescence intensity (a.u.). For “AAATAATTTATACTCAATTAATCATGCGCTAATAGCTACTCGGAGTCACCTAGTGCAG”, the binding signal was 30700 fluorescence intensity (a.u.).

For “ATTTATAAATTGATTTGGAGCACAGATCGATACGTGCAGACGGAGTCACCTAGTGCAG”, the binding signal was 53400 fluorescence intensity (a.u.). Turning to “ATAACTTTTAATTTAAGCTAATTTTATTTCTGCCGGACATCGGAGTCACCTAGTGCAG”, the binding signal is 19600 fluorescence intensity (a.u.). With “CAATGCCAGTGATAGATGAACTCTTGATGAGTTAGCTGGTCGGAGTCACCTAGTGCAG” the figure was 4380 fluorescence intensity (a.u.); with “AACCCATCAATTAAATATTTTATTTATTATGTAATATTTTCGGAGTCACCTAGTGCAG”, 18000 fluorescence intensity (a.u.). Regarding “GCTCTCAATTCAATCTCGCTTAATTCGATCGTCTTCTTCCCGGAGTCACCTAGTGCAG”, the binding signal is 4020 fluorescence intensity (a.u.). As to “ACAAATTATCTCCCAGCTCTTTTAGTAAAATACGAAACGACGGAGTCACCTAGTGCAG”, the binding signal is 4220 fluorescence intensity (a.u.). “GACAAATTAGTTGTTGACTTATCACACCCTACCCCATCTCCGGAGTCACCTAGTGCAG”: the binding signal is 11300 fluorescence intensity (a.u.).

For the sequence “AAATTTTGTTATGATTAGTATTTTCATTGCTATTAGATGACGGAGTCACCTAGTGCAG”, the binding signal is 8490 fluorescence intensity (a.u.). For “ATGATTTACTATTAATCTAGTCTATTGCTGAGATATACATCGGAGTCACCTAGTGCAG” the value was 11000 fluorescence intensity (a.u.); for “CAGCATTTCGTTTCTAATTGGCACGACACGTATATACATCCGGAGTCACCTAGTGCAG”, 7600 fluorescence intensity (a.u.); for “CTTTAATTTAATTTAAGTCACTCCTCTAAACTTTGAGCTTCGGAGTCACCTAGTGCAG”, 50900 fluorescence intensity (a.u.).

“ATAACATTCTATAGGTTGATTGATTTTGAAACAGAAAGTTCGGAGTCACCTAGTGCAG”: the binding signal is 22900 fluorescence intensity (a.u.).

In the case of “TTAACTAATTTATCCTCCATTATATTTCTAACCTGACTGTCGGAGTCACCTAGTGCAG”, the binding signal was 23600 fluorescence intensity (a.u.).

For “GAGTGTATTAAATTGGTTAACGACATAGTTTTGTGAAACTCGGAGTCACCTAGTGCAG”, the binding signal was 4280 fluorescence intensity (a.u.). For “AACATTTACGTAATTATAATTTATTTTGTTATGAGTTGTTCGGAGTCACCTAGTGCAG” the value was 22300 fluorescence intensity (a.u.); for “CAATCCATCAATCATTTTCTTTACAATCTCTACAGTTAGACGGAGTCACCTAGTGCAG”, 16400 fluorescence intensity (a.u.); for “AATTAGTTTAGCCAAATCAATAATTGAATATATTTTCATACGGAGTCACCTAGTGCAG”, 3630 fluorescence intensity (a.u.). For “TGCATTAAAATATTTAATAATTTATATGTGTTTATGGTACCGGAGTCACCTAGTGCAG” the value was 6360 fluorescence intensity (a.u.); for “TTGATTGTATGCCTTCTTTTGTGGGGAAATGAAGTTATGTCGGAGTCACCTAGTGCAG”, 14100 fluorescence intensity (a.u.). In the case of “CGTATGATTTACTTTGAGATACGTGTATGTGCCATTGAGTCGGAGTCACCTAGTGCAG”, the binding signal was 13600 fluorescence intensity (a.u.). With “ATAATAATTAGTAGGAGTACCTACCAACCGTGGACTAGTACGGAGTCACCTAGTGCAG” the figure was 16500 fluorescence intensity (a.u.).
